The entries are a selection whose mix differs from that of the whole data set. For part of these data: At the low end of the ranking, values are background and their order means little. The list shows a part of the results. For part of these data: The exact form of the protein is not confirmed.

Assay in all cases: universal protein binding microarray (PBM)
Common to all, as to conditions: transcription factors of Arabidopsis thaliana; high values mean tight binding; most listed sequences are background and not binding sites; double strand, one strand shown

One test deals with T1, GST-ANAC092(1-176) (UniProt Q9FKA0).
T1 sequence: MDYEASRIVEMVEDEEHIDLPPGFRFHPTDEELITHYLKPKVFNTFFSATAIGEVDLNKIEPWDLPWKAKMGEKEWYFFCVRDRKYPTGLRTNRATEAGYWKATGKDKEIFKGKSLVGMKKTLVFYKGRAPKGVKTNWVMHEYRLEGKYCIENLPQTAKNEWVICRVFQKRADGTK

Another test has as its target GST-NTL6(1-168) (UniProt Q9SCK6).
Chain of UniProt Q9SCK6 (Q9SCK6 1-168): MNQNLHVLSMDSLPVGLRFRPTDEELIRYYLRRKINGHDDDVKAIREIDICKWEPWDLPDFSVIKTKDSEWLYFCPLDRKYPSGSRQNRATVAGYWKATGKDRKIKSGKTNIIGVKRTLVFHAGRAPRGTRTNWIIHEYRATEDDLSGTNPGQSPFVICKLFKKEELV
A further test deals with T2, GST-ANAC019 NAC domain (UniProt Q9C932).
T2 sequence: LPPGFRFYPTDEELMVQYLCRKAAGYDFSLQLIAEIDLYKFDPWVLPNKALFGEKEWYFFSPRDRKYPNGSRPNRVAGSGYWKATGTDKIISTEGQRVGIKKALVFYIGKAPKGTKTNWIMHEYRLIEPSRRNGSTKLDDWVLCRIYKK

A further test concerns the target T3, GST-ANAC055(1-171) (UniProt Q9LDY8).
T3 sequence: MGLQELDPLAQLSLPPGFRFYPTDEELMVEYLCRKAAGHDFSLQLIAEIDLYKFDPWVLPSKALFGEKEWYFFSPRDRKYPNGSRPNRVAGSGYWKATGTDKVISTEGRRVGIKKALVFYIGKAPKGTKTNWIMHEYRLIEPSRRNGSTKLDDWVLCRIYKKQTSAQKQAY

The target of the next test is T4, GST-ATAF1 NAC domain (UniProt Q39013).
T4 sequence: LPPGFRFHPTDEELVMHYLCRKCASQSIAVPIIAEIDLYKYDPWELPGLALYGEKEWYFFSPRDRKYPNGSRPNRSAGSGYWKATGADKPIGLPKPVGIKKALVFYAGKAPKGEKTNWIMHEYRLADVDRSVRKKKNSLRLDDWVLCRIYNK

Test [1] concerns the target T5, GST-ANAC092(1-285) full length (UniProt Q9FKA0).
T5 sequence: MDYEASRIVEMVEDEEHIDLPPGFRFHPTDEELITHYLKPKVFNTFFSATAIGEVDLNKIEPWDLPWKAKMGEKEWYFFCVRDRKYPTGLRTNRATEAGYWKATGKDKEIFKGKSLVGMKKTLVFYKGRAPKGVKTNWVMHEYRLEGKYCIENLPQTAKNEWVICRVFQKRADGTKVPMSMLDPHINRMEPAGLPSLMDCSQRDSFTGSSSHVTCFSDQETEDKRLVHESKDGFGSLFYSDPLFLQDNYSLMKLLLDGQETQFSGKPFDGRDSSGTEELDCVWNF

The next test has as its target T6, GST-NAP(1-166) (UniProt O49255).
T6 sequence: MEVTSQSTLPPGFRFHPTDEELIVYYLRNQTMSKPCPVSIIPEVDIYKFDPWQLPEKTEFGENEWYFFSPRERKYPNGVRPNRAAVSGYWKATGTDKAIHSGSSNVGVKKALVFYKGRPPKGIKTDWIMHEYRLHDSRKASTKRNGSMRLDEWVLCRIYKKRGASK

Another test concerns the target T7, GST-NST2(1-184) (UniProt Q9M274).
T7 sequence: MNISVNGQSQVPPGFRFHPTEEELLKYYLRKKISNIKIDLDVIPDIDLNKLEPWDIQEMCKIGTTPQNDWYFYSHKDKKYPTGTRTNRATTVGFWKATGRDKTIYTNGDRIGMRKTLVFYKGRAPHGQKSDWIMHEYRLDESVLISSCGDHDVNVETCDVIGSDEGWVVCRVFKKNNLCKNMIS

The target in the next test is T8, GST-NTL8 NAC domain (UniProt Q9XIN7).
T8 sequence: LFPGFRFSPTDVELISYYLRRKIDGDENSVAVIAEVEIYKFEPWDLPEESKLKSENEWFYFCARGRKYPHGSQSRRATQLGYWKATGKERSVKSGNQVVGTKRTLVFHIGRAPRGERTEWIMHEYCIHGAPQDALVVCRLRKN

In the next test the target is T9, GST-SND1(1-203) (UniProt Q9LPI7).
T9 sequence: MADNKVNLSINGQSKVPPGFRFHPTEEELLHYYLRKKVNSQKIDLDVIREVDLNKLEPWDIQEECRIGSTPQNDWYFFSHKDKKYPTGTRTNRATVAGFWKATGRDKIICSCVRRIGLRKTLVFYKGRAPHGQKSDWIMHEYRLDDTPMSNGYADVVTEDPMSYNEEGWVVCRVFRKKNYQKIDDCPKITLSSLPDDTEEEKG

In the next test the target is T10, GST-VND3 NAC domain (UniProt Q9FH59).
T10 sequence: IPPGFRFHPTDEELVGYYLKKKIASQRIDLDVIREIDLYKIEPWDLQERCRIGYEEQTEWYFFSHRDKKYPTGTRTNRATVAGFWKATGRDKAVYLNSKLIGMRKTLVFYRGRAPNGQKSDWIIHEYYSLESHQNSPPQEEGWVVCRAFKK

A further test concerns the target T11, GST-VND7 NAC domain (UniProt Q9C8W9).
T11 sequence: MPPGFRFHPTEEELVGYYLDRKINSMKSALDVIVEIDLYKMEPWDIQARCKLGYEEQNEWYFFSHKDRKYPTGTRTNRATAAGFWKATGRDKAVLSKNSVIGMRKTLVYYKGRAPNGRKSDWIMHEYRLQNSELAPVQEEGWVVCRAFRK

The target in test [2] is T12, GST-VOZ2 (Arabidopsis thaliana) (UniProt Q9SLB9).
T12 sequence: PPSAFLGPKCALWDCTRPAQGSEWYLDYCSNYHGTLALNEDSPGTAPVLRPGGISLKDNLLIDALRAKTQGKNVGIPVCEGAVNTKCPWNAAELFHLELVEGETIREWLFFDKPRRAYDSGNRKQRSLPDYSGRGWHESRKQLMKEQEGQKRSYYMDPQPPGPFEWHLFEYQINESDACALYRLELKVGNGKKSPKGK

As to AGTCAGCA, the binding signal with GST-ANAC092(1-176) was -0.0111 E-score; in the test with GST-NTL6(1-168), -0.046 E-score; in the test with GST-ANAC019 NAC domain it was -0.0913 E-score; with GST-ANAC055(1-171) it was 0.0422 E-score; in the test with GST-ATAF1 NAC domain, -0.0135 E-score; in [1], -0.0245 E-score. Besides, the binding signal in the test with GST-NAP(1-166) was -0.105 E-score; with GST-NST2(1-184), -0.0334 E-score; in the test with GST-NTL8 NAC domain, 0.0149 E-score; with GST-SND1(1-203), -0.0724 E-score; with GST-VND3 NAC domain it was -0.0898 E-score; in the test with GST-VND7 NAC domain it was -0.095 E-score. The binding signal in test [2] is -0.116 E-score.
As to ATGACCGG, the binding signal with GST-ANAC092(1-176) is -0.274 E-score; with GST-NTL6(1-168), -0.0823 E-score; with GST-ANAC019 NAC domain it was -0.142 E-score; with GST-ANAC055(1-171) it was -0.211 E-score; in the test with GST-ATAF1 NAC domain, -0.192 E-score; in test [1] it was -0.0603 E-score. The binding signal with GST-NAP(1-166) is 0.00103 E-score; with GST-NST2(1-184) it was -0.187 E-score; with GST-NTL8 NAC domain, -0.207 E-score; with GST-SND1(1-203), -0.139 E-score; with GST-VND3 NAC domain, -0.231 E-score; with GST-VND7 NAC domain, -0.199 E-score. The binding signal in test [2] was -0.118 E-score.
GGTCAATA: the binding signal with GST-ANAC092(1-176) is -0.104 E-score; in the test with GST-NTL6(1-168) it was 0.0146 E-score; in the test with GST-ANAC019 NAC domain it was -0.0599 E-score; with GST-ANAC055(1-171), -0.0117 E-score; with GST-ATAF1 NAC domain, -0.1 E-score; in the test with GST-NST2(1-184), -0.114 E-score. For the same sequence, the binding signal in the test with GST-NTL8 NAC domain was -0.0103 E-score; with GST-SND1(1-203), -0.0367 E-score; in the test with GST-VND3 NAC domain, -0.0495 E-score; in the test with GST-VND7 NAC domain, -0.00593 E-score; in test [2] it was 0.0933 E-score.
GCCGTCAA: the binding signal with GST-ANAC092(1-176) is 0.0245 E-score; with GST-NTL6(1-168) it was -0.017 E-score; with GST-ANAC019 NAC domain, 0.0494 E-score; with GST-ANAC055(1-171), 0.0159 E-score; with GST-ATAF1 NAC domain, 0.00399 E-score; in test [1], -0.11 E-score. Besides, the binding signal with GST-NAP(1-166) was 0.0427 E-score; with GST-NST2(1-184) it was -0.0657 E-score; in the test with GST-NTL8 NAC domain, -0.0694 E-score; with GST-SND1(1-203), 0.0442 E-score; with GST-VND3 NAC domain, -0.0427 E-score; in the test with GST-VND7 NAC domain it was -0.0913 E-score. The sequence also showed a binding signal in test [2] of 0.0354 E-score.
For CCGTTGAC, the binding signal is 0.0264 E-score in the test with GST-ANAC092(1-176); -0.0639 E-score with GST-NTL6(1-168); 0.157 E-score with GST-ANAC019 NAC domain; 0.00548 E-score with GST-ANAC055(1-171); -0.099 E-score with GST-ATAF1 NAC domain; 0.126 E-score with GST-NAP(1-166). Besides, the binding signal in the test with GST-NST2(1-184) is 0.00662 E-score; with GST-NTL8 NAC domain it was -0.0298 E-score; with GST-SND1(1-203), 0.0236 E-score; in the test with GST-VND3 NAC domain, -0.091 E-score; with GST-VND7 NAC domain, -0.0953 E-score; in test [2] it was -0.0943 E-score.
As for CGGTCAAA, the binding signal in the test with GST-ANAC092(1-176) is 0.00646 E-score; in the test with GST-NTL6(1-168), -0.0801 E-score; with GST-ANAC019 NAC domain, -0.0604 E-score; with GST-ANAC055(1-171), -0.0579 E-score; in the test with GST-ATAF1 NAC domain it was -0.0821 E-score; in test [1], -0.0279 E-score. Moreover, the binding signal in the test with GST-NAP(1-166) is -0.0233 E-score; with GST-NTL8 NAC domain, 0.0552 E-score; with GST-SND1(1-203), 0.0459 E-score; with GST-VND3 NAC domain, -0.0686 E-score; with GST-VND7 NAC domain, -0.0841 E-score; in test [2] it was 0.0608 E-score.
Turning to AGGTCGTC, the binding signal with GST-ANAC092(1-176) is -0.0225 E-score; with GST-NTL6(1-168), -0.145 E-score; in the test with GST-ANAC019 NAC domain, -0.00751 E-score; with GST-ANAC055(1-171), -0.137 E-score; with GST-ATAF1 NAC domain it was -0.183 E-score; in [1] it was -0.0551 E-score. For the same sequence, the binding signal in the test with GST-NAP(1-166) was -0.0722 E-score; in the test with GST-NST2(1-184) it was -0.101 E-score; with GST-NTL8 NAC domain, -0.0386 E-score; in the test with GST-SND1(1-203), -0.0595 E-score; with GST-VND3 NAC domain it was -0.191 E-score; with GST-VND7 NAC domain, -0.174 E-score. The binding signal in test [2] was -0.139 E-score.
Regarding CCTTGACC, the binding signal with GST-ANAC092(1-176) is -0.0924 E-score; with GST-NTL6(1-168), -0.0916 E-score; with GST-ANAC019 NAC domain, -0.0243 E-score; with GST-ANAC055(1-171) it was -0.139 E-score; with GST-ATAF1 NAC domain, -0.133 E-score; in [1], -0.168 E-score. Further, the binding signal with GST-NAP(1-166) was -0.112 E-score; in the test with GST-NST2(1-184), -0.126 E-score; in the test with GST-NTL8 NAC domain, -0.0252 E-score; with GST-SND1(1-203), -0.0649 E-score; in the test with GST-VND3 NAC domain it was -0.234 E-score; with GST-VND7 NAC domain, -0.177 E-score. The binding signal in test [2] is -0.0874 E-score.
On to ACGTTGAC, for which the binding signal with GST-ANAC092(1-176) was 0.0221 E-score; with GST-NTL6(1-168) it was -0.0843 E-score; with GST-ANAC019 NAC domain, -0.0738 E-score; with GST-ANAC055(1-171), -0.0189 E-score; with GST-ATAF1 NAC domain it was 0.0168 E-score; with GST-NST2(1-184) it was 0.0247 E-score. For the same sequence, the binding signal with GST-NTL8 NAC domain is -0.109 E-score; with GST-SND1(1-203) it was 0.127 E-score; with GST-VND3 NAC domain, -0.00589 E-score; with GST-VND7 NAC domain, -0.0451 E-score; in test [2] it was -0.0473 E-score.
Regarding ACATTGAC, the binding signal with GST-ANAC092(1-176) was -0.0584 E-score; with GST-NTL6(1-168), -0.0795 E-score; with GST-ANAC019 NAC domain, -0.0611 E-score; in the test with GST-ANAC055(1-171), -0.0364 E-score; in the test with GST-ATAF1 NAC domain it was -0.00823 E-score; in test [1], 0.026 E-score. The binding signal in the test with GST-NST2(1-184) was -0.0858 E-score; with GST-NTL8 NAC domain it was -0.101 E-score; with GST-SND1(1-203) it was -0.151 E-score; with GST-VND3 NAC domain, -0.0458 E-score; with GST-VND7 NAC domain, -0.0594 E-score; in test [2] it was -0.054 E-score.

(Values after publication PMC4081100.)
